Test results: the supplement of paper PMC4604168 (melanoma cell lines)
The list shows a part of the results. Many values rest on one well or one pass, so single values are uncertain.

Columns and labels:
Assay in all cases: cell count relative to DMSO control; melanoma cells; higher = more viable cells
Conditions in all cases: library dose: low library concentration; 72 h
MZ2-MEL = tested on: MZ2-MEL
MeWo = tested on: MeWo
RPMI7951 = tested on: RPMI7951
RVH-421 = tested on: RVH-421
SkMel28 = tested on: SkMel28
SkMel2 = tested on: SkMel2
SkMel30 = tested on: SkMel30
UACC62 = tested on: UACC62
SkMel5 = tested on: SkMel5
UACC257 = tested on: UACC257
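Also: cell number obtained by counting DAPI-stained nuclei in high-throughput microscope images with image analysis software, screen run in 1,536-well plates.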

SMILES | cell count (MZ2-MEL) [%] | cell count (MeWo) [%] | cell count (RPMI7951) [%] | cell count (RVH-421) [%] | cell count (SkMel28) [%] | cell count (SkMel2) [%] | cell count (SkMel30) [%] | cell count (UACC62) [%] | cell count (SkMel5) [%] | cell count (UACC257) [%]
Cn1cnc2c(F)c(Nc3ccc(Br)cc3Cl)c(C(=O)NOCCO)cc21 [selumetinib] + CC(C)C[C@H](NC(=O)[C@H](Cc1ccccc1)NC(=O)c1cnccn1)B(O)O [Bortezomib] (first compound 0.015 µM, partner dose 0.001 µM) | 89.6 | 82.1 | 105 | 68.5 | 81.8 | 80.2 | 62.5 | 58.6 |  | 
CCN(CC)CCNC(=O)c1c(C)[nH]c(/C=C2\C(=O)Nc3ccc(F)cc32)c1C [sunitinib] + Cc1cc(Nc2cc(N3CCN(C)CC3)nc(/C=C/c3ccccc3)n2)n[nH]1 [ENMD2076] (first compound 0.4 µM, partner dose 0.04 µM) | 118 | 88 | 112 | 115 | 112 | 110 | 85.7 | 99.4 |  | 
C[C@]1(O)C[C@@H](c2nc(-c3ccc4ccc(-c5ccccc5)nc4c3)c3c(N)nccn32)C1 + Cn1nnc2c(C(N)=O)ncn2c1=O [temozolomide] (first compound 0.4 µM, partner dose 2 µM) | 99.9 | 92.5 | 80.2 | 87.9 | 81 | 82.6 | 82.8 | 74 |  | 
Cn1cnc2c(F)c(Nc3ccc(Br)cc3Cl)c(C(=O)NOCCO)cc21 [selumetinib] + Nc1cccc2c1CN(C1CCC(=O)NC1=O)C2=O [lenalidomide] (first compound 0.015 µM, partner dose 1 µM) | 97.8 | 101 | 105 | 81.8 | 96.2 | 73.9 | 63.1 | 81.6 |  | 
COc1cc([C@@H]2c3cc4c(cc3[C@@H](O[C@@H]3O[C@@H]5CO[C@@H](C)O[C@H]5[C@H](O)[C@H]3O)[C@H]3COC(=O)[C@H]23)OCO4)cc(OC)c1O [etoposide] + O=C(Nc1cc(C(F)(F)F)cc(C(F)(F)F)c1)c1cc(Cl)ccc1O [IMD0354] (first compound 0.02 µM, partner dose 0.016 µM) | 101 | 91 | 86.7 | 104 | 79.1 | 97.9 | 88.9 | 69.6 |  | 
COc1cc([C@@H]2c3cc4c(cc3[C@@H](O[C@@H]3O[C@@H]5CO[C@@H](C)O[C@H]5[C@H](O)[C@H]3O)[C@H]3COC(=O)[C@H]23)OCO4)cc(OC)c1O [etoposide] + C[C@@H](Oc1cc(-c2cnn(C3CCNCC3)c2)cnc1N)c1c(Cl)ccc(F)c1Cl [Crizotinib] (first compound 0.02 µM, partner dose 0.2 µM) | 94.7 | 89.9 | 101 | 82.1 | 87.2 | 95 | 88.8 | 84.1 |  | 
Cn1cnc2c(F)c(Nc3ccc(Br)cc3Cl)c(C(=O)NOCCO)cc21 [selumetinib] + C=CCNC1=C2C[C@@H](C)C[C@H](OC)[C@H](O)[C@@H](C)/C=C(\C)[C@H](OC(N)=O)[C@@H](OC)/C=C\C=C(/C)C(=O)NC(=CC1=O)C2=O [Tanespimycin] (first compound 0.015 µM, partner dose 0.002 µM) |  | 89.4 | 108 | 65.1 | 81.2 |  | 55.9 | 59 |  | 
Cn1cnc2c(F)c(Nc3ccc(Br)cc3Cl)c(C(=O)NOCCO)cc21 [selumetinib] + Cn1c(Nc2ccc(C(F)(F)F)cc2)nc2cc(Oc3ccnc(-c4ncc(C(F)(F)F)[nH]4)c3)ccc21 [CHIR265] (first compound 0.015 µM, partner dose 0.08 µM) | 81.6 | 60.3 | 72.6 | 54 | 56.5 | 49.1 | 43.3 | 41 |  | 
COc1cc([C@@H]2c3cc4c(cc3[C@@H](O[C@@H]3O[C@@H]5CO[C@@H](C)O[C@H]5[C@H](O)[C@H]3O)[C@H]3COC(=O)[C@H]23)OCO4)cc(OC)c1O [etoposide] + COC(=O)c1sccc1S(=O)(=O)Nc1ccc(Nc2ccccc2)cc1OC [GSK0660] (first compound 0.02 µM, partner dose 1 µM) |  | 90.7 | 113 | 83.8 | 96.5 | 97.6 | 128 | 80.4 | 95 | 127
C[C@]1(O)C[C@@H](c2nc(-c3ccc4ccc(-c5ccccc5)nc4c3)c3c(N)nccn32)C1 + COc1ccc(-c2ccc3c(N4CCOCC4)nc(N4C[C@@H](C)O[C@@H](C)C4)nc3n2)cc1CO [KU0063794] (first compound 0.4 µM, partner dose 0.02 µM) |  | 97.9 | 113 | 74.9 | 89.3 | 68.9 | 73.5 | 86.3 | 71.7 | 74.4
COc1cc([C@@H]2c3cc4c(cc3[C@@H](O[C@@H]3O[C@@H]5CO[C@@H](C)O[C@H]5[C@H](O)[C@H]3O)[C@H]3COC(=O)[C@H]23)OCO4)cc(OC)c1O [etoposide] + O=c1cc(-c2cccc3c2Sc2ccccc2S3)oc(N2CCOCC2)c1 [KU55933] (first compound 0.02 µM, partner dose 1 µM) |  | 90.4 | 99.2 | 123 | 117 |  | 98.6 | 102 | 96.7 | 97.8
Cn1cnc2c(F)c(Nc3ccc(Br)cc3Cl)c(C(=O)NOCCO)cc21 [selumetinib] + CO[C@H]1C[C@@H]2CC[C@@H](C)[C@@](O)(O2)C(=O)C(=O)N2CCCC[C@H]2C(=O)O[C@H]([C@H](C)C[C@@H]2CC[C@@H](OCCO)[C@H](OC)C2)CC(=O)[C@H](C)/C=C(\C)[C@@H](O)[C@@H](OC)C(=O)[C@H](C)C[C@H](C)/C=C/C=C/C=C/1C [everolimus] (first compound 0.015 µM, partner dose 0.02 µM) | 70.9 | 68.4 | 82 | 73.5 | 49.5 |  | 46.3 | 43.5 |  | 
CCN(CC)CCNC(=O)c1c(C)[nH]c(/C=C2\C(=O)Nc3ccc(F)cc32)c1C [sunitinib] + CO[C@H]1C[C@@H]2CC[C@@H](C)[C@@](O)(O2)C(=O)C(=O)N2CCCC[C@H]2C(=O)O[C@H]([C@H](C)C[C@@H]2CC[C@@H](OCCO)[C@H](OC)C2)CC(=O)[C@H](C)/C=C(\C)[C@@H](O)[C@@H](OC)C(=O)[C@H](C)C[C@H](C)/C=C/C=C/C=C/1C [everolimus] (first compound 0.4 µM, partner dose 0.02 µM) | 77 | 58.6 | 90.6 | 71.6 | 59.7 |  | 50.5 | 48.4 |  | 
C[C@]1(O)C[C@@H](c2nc(-c3ccc4ccc(-c5ccccc5)nc4c3)c3c(N)nccn32)C1 + C[C@@H]1CCN(C(=O)CC#N)C[C@@H]1N(C)c1ncnc2[nH]ccc12 [CP690550] (first compound 0.4 µM, partner dose 1 µM) |  | 103 | 130 | 127 | 104 | 83 | 83.7 | 105 | 99.1 | 69.9
Cn1cnc2c(F)c(Nc3ccc(Br)cc3Cl)c(C(=O)NOCCO)cc21 [selumetinib] + OCCn1cc(-c2cnc3nnn(Cc4ccc5ncccc5c4)c3n2)cn1 [PF04217903] (first compound 0.015 µM, partner dose 1 µM) |  | 86.3 | 113 | 80.2 | 72.8 |  | 73.8 | 76.6 | 87 | 73.9
COc1cc([C@@H]2c3cc4c(cc3[C@@H](O[C@@H]3O[C@@H]5CO[C@@H](C)O[C@H]5[C@H](O)[C@H]3O)[C@H]3COC(=O)[C@H]23)OCO4)cc(OC)c1O [etoposide] + Cc1cn(-c2cc(NC(=O)c3ccc(C)c(Nc4nccc(-c5cccnc5)n4)c3)cc(C(F)(F)F)c2)cn1 [nilotinib] (first compound 0.02 µM, partner dose 0.2 µM) |  | 87.5 | 89 | 80.5 | 78.6 |  | 92.8 | 86.2 |  | 
COc1cc([C@@H]2c3cc4c(cc3[C@@H](O[C@@H]3O[C@@H]5CO[C@@H](C)O[C@H]5[C@H](O)[C@H]3O)[C@H]3COC(=O)[C@H]23)OCO4)cc(OC)c1O [etoposide] + Cn1nnc2c(C(N)=O)ncn2c1=O [temozolomide] (first compound 0.02 µM, partner dose 2 µM) |  | 88.9 | 103 | 92.2 | 82.4 | 99.5 | 93.8 | 56.1 |  | 
CCN(CC)CCNC(=O)c1c(C)[nH]c(/C=C2\C(=O)Nc3ccc(F)cc32)c1C [sunitinib] + CS(=O)(=O)CCNCc1ccc(-c2ccc3ncnc(Nc4ccc(OCc5cccc(F)c5)c(Cl)c4)c3c2)o1 [lapatinib] (first compound 0.4 µM, partner dose 0.8 µM) |  | 83.5 | 90.8 | 109 | 87.6 |  | 53.4 | 88.6 |  | 
CCN(CC)CCNC(=O)c1c(C)[nH]c(/C=C2\C(=O)Nc3ccc(F)cc32)c1C [sunitinib] + NC1(c2ccc(-c3nc4ccn5c(=O)[nH]nc5c4cc3-c3ccccc3)cc2)CCC1 [MK2206] (first compound 0.4 µM, partner dose 0.4 µM) | 100 | 68.8 | 90.2 | 116 | 86.5 | 104 | 69.2 | 69.7 |  | 
C[C@]1(O)C[C@@H](c2nc(-c3ccc4ccc(-c5ccccc5)nc4c3)c3c(N)nccn32)C1 + CO[C@H]1C[C@@H]2CC[C@@H](C)[C@@](O)(O2)C(=O)C(=O)N2CCCC[C@H]2C(=O)O[C@H]([C@H](C)C[C@@H]2CC[C@@H](OCCO)[C@H](OC)C2)CC(=O)[C@H](C)/C=C(\C)[C@@H](O)[C@@H](OC)C(=O)[C@H](C)C[C@H](C)/C=C/C=C/C=C/1C [everolimus] (first compound 0.4 µM, partner dose 0.02 µM) | 52 | 63.7 | 76.5 | 85.9 | 38.5 |  | 40.8 | 48.6 |  | 
COc1cc([C@@H]2c3cc4c(cc3[C@@H](O[C@@H]3O[C@@H]5CO[C@@H](C)O[C@H]5[C@H](O)[C@H]3O)[C@H]3COC(=O)[C@H]23)OCO4)cc(OC)c1O [etoposide] + CCCS(=O)(=O)Nc1ccc(F)c(C(=O)c2c[nH]c3ncc(Cl)cc23)c1F [PLX4720] (first compound 0.02 µM, partner dose 0.08 µM) |  | 95.1 | 111 | 77.3 | 120 |  | 106 | 80.3 |  | 
